Reference: the RNAGym collection of RNA variant scans (doi:10.7554/elife.90254)
The source gives no read counts; variants with many changes may rest on few reads.

B1: LINE1-mini (parent)
chain: GGCAGAGCUCAACACAGCGUGGCAAAGUGGCUGUGGCUAGACUGCC

Variants of: B1
Experiment: self-cleavage, relative activity (ratio to wild type); higher = more cleavage; in vitro, sequencing; the parent is a self-cleaving ribozyme

Variant	self-cleavage
G19A C23U A24C G44U	0.03
G1A G19C A26G U34C	0.11
A4U A16C A25G U32G	0.43
A4U G5U G17U	0.04
A14C C18A C42G	0.04
A11G G21U G22C C31G U43G C46U	0.02
G2U C8U C10U C37G G44A	0.03
A6U A14C A25U G35A	0.25
C10A U20A U32A	0.02
C3G U32C U34G A39U	0.11
G1C C10A A26U A41G G44A C45A	0.07
G2U C8A G22U C42G	0.02
A6C G30U A39C	0.12
G7C G17U U28C G29U	0.06
C31A G33C G35C U38A	0.05
C3U G7A C13U	0.1
G1C C8G G17A	0.01
G22U G30U G36U	0.03
A12U G33A C37U	0
G30A A41U C45G	0.12
U20G G30U G44U	0.03
A4U A25C A39U	0.06
U20G C31G U32G	0.03
A11G G30C U32G C37G	0.04

Variant	self-cleavage
A16C G30U C45U	0.03
A6U G17A C37A	0.02
C13A G22U U43A C45G	0
G5U C8U U9C	0.06
A6U A41G U43A	0.09
C8U A12G C13U C15G C18U G19C G29U	0.07
C10G A11G U20C G44C	0.01
G2U G19A A41U	0.03
U9A A24U G44A	0.4
C13U G29A C37A A39C	0.07
A6C A24U C37A	0.03
G35U C37A C46U	0.05
C8U A14U A41G	0.08
C3G G27U C46A	0.1
G1U A6C C18A U38C	0
A14G G27A G35C	0.01
A12G U28C A39C	0.01
C15G G19C G21A U34A G40C	0.04
C8G C10A C23G	0
G1A G7A U20G A41C	0.38
G1A G5A U32A A41C	0.1
G7A G21C C45U	0.05
C10U U32G C45A	0.05
C13U C18G U32G	0.03

Variant	self-cleavage
C3G G5A C10A G30U U32G U38A	0.03
C18U C23A A25U G36C	0.03
A11U A14G G44A	0.02
U20A G22A C23A A24C G30A C31A	0.27
G5U C8U A14U	0.49
G2U C23A C31A G33U A39G A41C	0.05
U32A U38G C42U	0
G2A C15G G30A U38A	0.01
G7A U32C G35C U43A	0.03
G2C G19U G29C U34C	0.01
C15G G22C A25U	0.01
G2C G30A U43C	0.05
G1C A11C A16U G33C	0.01
U9A G22A G44A	0
G1U A4U C42G	0.04
G7A U34A A41U	0.17
U20G G21A G29C A41C	0.02
G5A U9G C18U A41C C42A G44U C45A	0.03
C13U C15A U38C C42G	0.18
G17C C23U G27C G33C G40A	0.05
A6C G35C C45A	0.01
G1U G2A C23U G36U G44U	0.12
C8U G17A G19A U20G A41G	0.02
U9C C15U G22C C23G A26G C46A	0.01

Variant	self-cleavage
A6G U28C U32C	0.08
A16G G22C A41U	0.04
G5U G17A G33C G40U	0.01
G1U A12C C18A G19U A24C G29A C42A	0
C23A U32G A41U	0.47
G7A G19U G30U A39C	1.22
C8A G22U G35U	0.4
A12C C13A G19U A26G G30C G44U	0.01
G5U C13U G21U	0.15
C3A G19A U20A G36A	0.31
G19A G29A G35U	0.05
G2C A14G G17U	0.04
G2A A14U G33A U34A	0.3
G5U G19U G29A G44A	0.04
A14G G21U G22U G33U	0.09
A6G G19C G35U	0.03
G21C C23A A25U G29U	0.79
C10U A16G G27A G36C	0.05
G29C G35U A39U C46U	0.04
C3A A16U G19C U34G	0.17
A12U G17A C37A A41G	0.04
C8G A16C U43C	0.01
G5A U32G G35C A39C	0.26
A6G G21C A24U	0.04

Variant	self-cleavage
C10A C13A A16U G19A G36U	0.02
A12C A16G U20C A41U	0.01
G2A U20A U34C C45U	0.33
A4U C37A C46U	0.01
G27C G33U U43G G44C	0.02
C23A G36C A41U	0.23
C13U A26G U32C	0.09
A4U C18A G35C C37U	0.03
G22U C23A C45U	1.81
C13U G21U G27C G36A	0.29
A14G C15U C42U C46G	0.02
A11C C13A G33C	0
C10G A16U U34A	0.02
G2C C15A C37A C42A	0.02
C18U A25U C31G C42A	0.05
G1U G5U A26G G44A	0.02
C10A G21A G27C	0.05
G1C A4U A11U G33U G36A C46A	0.01
A6C A25C C37U	0.02
C10G A11G C15G A16G C18G	0.01
G2A G5U C8A C10A A41C	0.08
A4C A6C C8U U9C C15A	0.06
G2A A12C G29A G36U	0.02
G1A C8U G22U G36C C37G A39U	0.54

Variant	self-cleavage
G17U A25C A26C	0.1
A16G C18G C42G	0.14
A4C A12U A25C	0.03
U32A G44A C45G	0.03
A11U A12U A14G	0.04
G7U U32C G33A	0.11
A14C C15A G17A G22A	0.04
G19A G22U U28C G30A	1.08
G1C G2U C18A G36U A41C	0.02
A11U U20G A26U	0.11
C15U G29U C45U	1.86
C3A G7C C8U A11U C23U	0.07
A6G C8A G19U U38C C42A	0.06
C3A A4C G5C C8U G27A	0.05
A16C A25C A26C G30C G33A C37G	0.03
G1U U28G U43G	0.06
G5A C8A G21U	0.02
C10U C37A A41U	0.02
A4G C10A G19C G30U	0.03
C10A G44U C45A	0.1
G2U A16U G21C U38A G44A	0
A4C G7U A11G A26U G35A G40C	0.02
G5U G19C C31G C37A	0.03
C3U G7C A11U U20A	0.01

Variant	self-cleavage
U9C C13A A14C G17A	0.01
C8A G19C G27U A41C	0.07
C3U G5A A6C G19A G21C C23U U34A G35U U38A	0.04
C18U A26C G33U C42A	0.03
C10U A11C G19A G30C	0.04
C3A G7C G21A G22C C37A	0.03
U9A C31U G40U	0
U9A A25C G35U C42G	0.01
G2C C3A G5U C10A A16C C18G	0.02
A6C G19C G36A	0.2
U9A C13U G17C G22U C37U	0.13
U9A G19C C37A	0.02
G1U G5C C8G U34G	0.04
C18G G35C A39C	0.05
C3U G17A G22A A26C	0.14
G5U G21C A25C G29A	0.05
G1A C13U A14G	0.14
C23A A39G A41U	0.08
C18U U34C G40U	0.03
C10U C15A A16C G21C	0.05
C10A C13G A25U U28A A41G C45G	0.02
C13U C31A G36U	0.08
G29U G35C C42G	0.01
